# Results: the supplement of paper PMC3334620
# The full ranking holds about 33,000 sequences; the median of “E-score (-0.5 to 0.5)” is about -0.016, and the highest 2% start at about 0.32. Some of the results follow.
# Target: T1, Stp1 (UniProt B3LFK1)
# T1 sequence: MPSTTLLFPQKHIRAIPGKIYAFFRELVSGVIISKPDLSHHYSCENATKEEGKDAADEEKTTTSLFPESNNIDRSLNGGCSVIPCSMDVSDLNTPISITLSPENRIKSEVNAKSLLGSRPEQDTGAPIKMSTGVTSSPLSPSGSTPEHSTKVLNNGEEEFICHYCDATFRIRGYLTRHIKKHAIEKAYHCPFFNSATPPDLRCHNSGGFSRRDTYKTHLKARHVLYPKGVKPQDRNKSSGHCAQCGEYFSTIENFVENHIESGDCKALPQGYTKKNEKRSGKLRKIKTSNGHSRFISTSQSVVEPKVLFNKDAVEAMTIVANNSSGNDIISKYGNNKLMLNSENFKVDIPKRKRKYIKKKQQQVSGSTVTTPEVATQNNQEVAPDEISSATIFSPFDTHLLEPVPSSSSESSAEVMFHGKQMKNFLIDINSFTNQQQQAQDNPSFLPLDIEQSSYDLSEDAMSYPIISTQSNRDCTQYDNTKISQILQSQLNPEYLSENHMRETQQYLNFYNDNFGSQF
# Experiment: PBM E-score (8-mer binding enrichment) (E-score (-0.5 to 0.5)); higher = stronger / more preferred TF binding; most listed sequences are background and not binding sites
# Settings: protein concentration: 200 nM; construct: GST-full length
# Summary of the method: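 PURExpress in vitro transcription/translation supplied GST-tagged yeast transcription factors, either full-length or DNA-binding domain. Applied at about 100-200 nM to universal all-10-mer Agilent arrays double-stranded by primer extension, the bound protein was detected with fluorescent anti-GST. E-scores, modified Wilcoxon-Mann-Whitney statistics, were given by the Universal PBM Analysis Suite to ungapped eight-base words pooled with their reverse complements after masliner normalisation.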
row,Sequence,PBM E-score
1,AAGCCACT,0.0282
2,ACTCAACT,0.00459
3,TCCACAAA,0.11
4,AATCCTAA,-0.0723
5,AATATCAT,0.237
6,AACGTCTG,0.0488
7,GATTTTCA,0.197
8,AGACAGTA,0.0158
9,AGGGGTAG,-0.323
10,GAAAGCTA,-0.205
11,ACGTATGA,0.15
12,GGTAACGA,-0.111
13,GGAATCCA,0.108
14,ACGATTTA,0.0942
15,CGGGGCAC,0.231
16,CCGGAATC,-0.297
17,CGTTCCCC,-0.0811
18,TGAATGCA,0.00939
19,CTACGGCC,0.126
20,AGGTTATG,-0.0463
21,AACAAATC,0.0549
22,GTCTACCA,-0.164
23,TGTCTCAA,-0.0662
24,CGCGCGTA,0.215
25,GCTATCAA,0.0278

row,Sequence,PBM E-score
1,TCTGGCAA,-0.0798
2,CGGCGAAG,0.292
3,GTATTGAA,0.0945
4,AGTTCTCA,0.0157
5,TATACCAA,0.213
6,AAAAAATA,0.141
7,ACAGTATA,0.0606
8,GCTACTCC,-0.253
9,CTGTAAAA,0.0877
10,GAAGCTAA,-0.0649
11,GATCTGGA,-0.147
12,AGCTCGAT,-0.0431
13,AATTCTCG,-0.0365
14,CCCCCGTC,-0.393
15,ACACCCTG,-0.214
16,ATTCTTAG,-0.00709
17,ACAAACTA,0.176
18,GGACGTCA,-0.181
19,GGCATCTA,0.295
20,GATTAACC,-0.0752
21,AATGCAAA,0.209
22,AGAACGCC,0.256
23,AATGTAAT,0.185
24,CCGCGTCC,0.296
25,GGCATGAA,0.232

row,Sequence,PBM E-score
1,AATCCGGG,-0.118
2,ACCCTGTC,-0.226
3,AGTAAGTA,0.14
4,CCGGCGAA,0.088
5,CGGTCCCA,-0.229
6,GTCACGTA,-0.14
7,CTCGCGAG,0.184
8,AATGTTGT,0.0132
9,AATAGATA,0.101
10,CGGCTACA,0.245
11,GCTTTTCA,-0.111
12,AGGCACTC,0.139
13,CGTCACGA,0.0354
14,CTCTCCCC,-0.316
15,ATACGTAA,0.153
16,CCAACCAG,-0.122
17,CGCAGGCA,0.197
18,CAAATGGG,-0.101
19,ATCGAGCA,-0.0488
20,ATGGTCTC,-0.204
21,GGAGCCAC,-0.246
22,ACTATTAT,0.0978
23,CCGCTGCG,0.0683
24,ACTGGTTC,-0.0557
25,GGGCACCA,0.056

row,Sequence,PBM E-score
1,CGGTCGCA,-0.199
2,GTTCCACA,-0.228
3,ATGGGTGA,-0.0293
4,CCGACACG,-0.0479
5,CTCTCTAC,0.00217
6,CACGCCGA,0.0798
7,AAAGACGA,0.0348
8,GGATCGCC,0.0502
9,AGGGAGAG,-0.299
10,GACAGGTA,-0.0762
11,GGATCAAA,0.0615
12,GGCTACAC,0.107
13,AGGACAAG,-0.0893
14,AATTTTCG,0.0788
15,CACAGCAC,0.0573
16,ACAAGTAC,0.0453
17,AAGCTGAT,0.153
18,CCCCGAAG,-0.137
19,CCTATAGA,-0.119
20,CGTATATA,0.167
21,CTCACAAG,-0.00272
22,GAGATCAA,0.0945
23,AAGACCAT,0.0176
24,CCGGGACC,-0.14
25,ATGTTTCA,0.0604

row,Sequence,PBM E-score
1,GAAGGGAC,-0.285
2,AACGCTAA,-0.131
3,CTTTGGTC,0.00451
4,CGGGATTC,0.167
5,GCTTGTAA,0.0149
6,CTAAATCC,0.0807
7,ATCCATGG,0.0254
8,AGTTCTCC,-0.181
9,CCTTGGTA,0.149
10,CATTGAGG,-0.186
11,AGGTAGGC,-0.175
12,AGCACTAA,0.132
13,CACGTCGA,-0.147
14,ATTCCATG,0.0428
15,CGAGGTCC,-0.183
16,AAACCTCT,-0.178
17,GACCATCC,-0.191
18,AAACTGGG,-0.188
19,CTATGCCC,-0.0982
20,ATTACGCA,0.06
21,GATATACA,-0.00348
22,ACTCCGTG,0.185
23,AGAGTCCG,-0.0927
24,ACCTTGTC,-0.19
25,AGAGTTCC,-0.201

row,Sequence,PBM E-score
1,ACTACACA,0.075
2,ATGAAAAC,0.187
3,TGACAGAA,0.127
4,AACAGGTC,-0.214
5,CGCGATAA,0.0906
6,CAGATGGA,-9e-05
7,AGGGGCCG,-0.0963
8,ATGCATTG,-0.111
9,CCGATAAA,-0.0775
10,CACAGACA,0.107
11,GGGTGATA,-0.273
12,CTCCTAAG,-0.121
13,GTCCATTA,0.0744
14,CCCGGAGC,-0.141
15,TCGCGTCA,-0.126
16,AACGACCC,-0.213
17,GCACTATA,0.188
18,ATGTCTGC,0.00517
19,CCGCCATA,0.0719
20,ATTCTTCC,-0.223
21,GCACACCA,-0.0799
22,CATCTCCG,0.0211
23,AAGCCACA,0.0518
24,CCCACTCC,-0.295
25,CGTTATCA,0.0755

row,Sequence,PBM E-score
1,CTTATGAA,-0.00014
2,TACAGTAA,0.00798
3,AACCCCCT,-0.272
4,ATAGGTTC,0.0795
5,AAGTTTTA,0.189
6,GTTCGAAA,0.284
7,ACTCTGTA,0.0765
8,AAGCAATC,-0.217
9,AAAGTAGC,0.0671
10,CATGGAAG,0.0199
11,ATTACATG,0.0819
12,ATGACGGG,-0.0445
13,CCCTTCGA,-0.117
14,GAAATCGA,-0.0915
15,ACTCGTTG,0.0496
16,AACATGAA,0.0615
17,TGTTCGAA,0.135
18,AGAACTCC,-0.143
19,GAGGTTGC,-0.18
20,GTGGGGTA,-0.0559
21,AATAGGAT,0.141
22,CGCTCTCA,-0.0367
